Source: patent US10299477B2 (priority 2015, dated 2019)

What was measured:
Format in all cases: in vivo
Botrytis cinerea = assay: Test Example B: Gray mold on tomato; conditions: 250 ppm spray; for Test B control value (gray mold on tomato): preventive, control value class; for Test B (control value class): gray mold on tomato, Botrytis cinerea
Description: [Test Example B] Gray Mold on Tomato
Seeds of a test plant (tomato variety: Oogata Fukuju) were planted followed by cultivating until three to five first leaves (true leaves) appeared.

Plasmopara viticola = assay: Test Example G: Downy mildew on vine; conditions: 7-10 days after inoculation; for Test G control value (downy mildew on vine): 250 ppm spray (2.5 ml/pot), preventive, control value class; for Test G (control value class): downy mildew on vine, Plasmopara viticola, 250 ppm spray
Description: [Test Example G] Downy Mildew on Vine
Seeds of a test plant (grape variety: Neomuscat) were planted followed by cultivating until three to four first leaves appeared. […] After the sprayed dilutions were dried, a zoosporangia suspension (1-2×10^4 zoosporangia/ml) of Plasmopara viticola was inoculated to the plants by spraying.

[1] = test system: Blumeria graminis f sp. hordei; assay: Test Example D: Powdery mildew on barley; conditions: 250 ppm spray; for Test D control value (powdery mildew on barley): preventive, control value class; for Test D (control value class): powdery mildew on barley
Description: [Test Example D] Powdery Mildew on Barley
After the sprayed dilutions were dried, conidia of Blumeria graminis f sp. hordei were inoculated to the plants by shaking off.

Puccinia recondita = assay: Test Example E: Brown rust on wheat; conditions: 250 ppm spray; for Test E control value (brown rust on wheat): preventive, control value class; for Test E (control value class): brown rust on wheat, Puccinia recondita
Description: [Test Example E] Brown Rust on Wheat

Alternaia brassicicola = assay: Test Example C: Alternaria sooty spot on cabbage; conditions: 250 ppm spray; for Test C control value (Alternaria sooty spot on cabbage): preventive, control value class; for Test C (control value class): Alternaria sooty spot on cabbage
Description: [Test Example C] Alternaria Sooty Spot on Cabbage
Seeds of a test plant (cabbage variety: Shikidori) were planted followed by cultivating until the cotyledons extended.

Cn1c(-c2c(F)cccc2F)c(-c2cccc(Cl)c2Cl)ccc1=O [Compound 364]
Test B control value (gray mold on tomato) (Botrytis cinerea): H (H shows more than 50% of control values)
Test G control value (downy mildew on vine) (Plasmopara viticola): L (L shows 50% or less of control values)
Test D control value (powdery mildew on barley) [1]: H (H shows more than 50% of control values)
Test E control value (brown rust on wheat) (Puccinia recondita): H (H shows more than 50% of control values)
Test C control value (Alternaria sooty spot on cabbage) (Alternaia brassicicola): H (H shows more than 50% of control values)

Cn1c(-c2c(F)cccc2F)c(-c2cccc(Cl)c2Cl)cc(Cl)c1=O [Compound 365]
Test B control value (gray mold on tomato) (Botrytis cinerea): H (H shows more than 50% of control values)
Test G control value (downy mildew on vine) (Plasmopara viticola): L (L shows 50% or less of control values)
Test D control value (powdery mildew on barley) [1]: H (H shows more than 50% of control values)
Test E control value (brown rust on wheat) (Puccinia recondita): H (H shows more than 50% of control values)
Test C control value (Alternaria sooty spot on cabbage) (Alternaia brassicicola): H (H shows more than 50% of control values)

O=c1ccc(-c2cccc(Cl)c2Cl)c(-c2c(F)cccc2F)n1CC(F)F [Compound 366]
Test B control value (gray mold on tomato) (Botrytis cinerea): H (H shows more than 50% of control values)
Test G control value (downy mildew on vine) (Plasmopara viticola): L (L shows 50% or less of control values)
Test D control value (powdery mildew on barley) [1]: H (H shows more than 50% of control values)
Test E control value (brown rust on wheat) (Puccinia recondita): H (H shows more than 50% of control values)
Test C control value (Alternaria sooty spot on cabbage) (Alternaia brassicicola): H (H shows more than 50% of control values)

O=c1c(Cl)cc(-c2cccc(Cl)c2Cl)c(-c2c(F)cccc2F)n1CC(F)F [Compound 367]
Test B control value (gray mold on tomato) (Botrytis cinerea): H (H shows more than 50% of control values)
Test G control value (downy mildew on vine) (Plasmopara viticola): L (L shows 50% or less of control values)
Test D control value (powdery mildew on barley) [1]: H (H shows more than 50% of control values)
Test E control value (brown rust on wheat) (Puccinia recondita): H (H shows more than 50% of control values)
Test C control value (Alternaria sooty spot on cabbage) (Alternaia brassicicola): H (H shows more than 50% of control values)

CCn1c(-c2c(F)cccc2F)c(-c2c(F)c(F)c(F)c(F)c2F)ccc1=O [Compound 368]
Test B control value (gray mold on tomato) (Botrytis cinerea): H (H shows more than 50% of control values)
Test G control value (downy mildew on vine) (Plasmopara viticola): L (L shows 50% or less of control values)
Test D control value (powdery mildew on barley) [1]: H (H shows more than 50% of control values)
Test E control value (brown rust on wheat) (Puccinia recondita): H (H shows more than 50% of control values)
Test C control value (Alternaria sooty spot on cabbage) (Alternaia brassicicola): H (H shows more than 50% of control values)

CCc1cc(-c2cc(OC)ccc2Cl)c(-c2c(F)cccc2F)n(CC)c1=O [Compound 369]
Test B control value (gray mold on tomato) (Botrytis cinerea): H (H shows more than 50% of control values)
Test G control value (downy mildew on vine) (Plasmopara viticola): L (L shows 50% or less of control values)
Test D control value (powdery mildew on barley) [1]: H (H shows more than 50% of control values)
Test E control value (brown rust on wheat) (Puccinia recondita): H (H shows more than 50% of control values)
Test C control value (Alternaria sooty spot on cabbage) (Alternaia brassicicola): H (H shows more than 50% of control values)

CCCc1cc(-c2cc(OC)ccc2Cl)c(-c2c(F)cccc2F)n(CC)c1=O [Compound 370]
Test B control value (gray mold on tomato) (Botrytis cinerea): H (H shows more than 50% of control values)
Test G control value (downy mildew on vine) (Plasmopara viticola): L (L shows 50% or less of control values)
Test D control value (powdery mildew on barley) [1]: L (L shows 50% or less of control values)
Test E control value (brown rust on wheat) (Puccinia recondita): L (L shows 50% or less of control values)
Test C control value (Alternaria sooty spot on cabbage) (Alternaia brassicicola): H (H shows more than 50% of control values)

CCn1c(-c2c(F)cccc2F)c(-c2cc(OC)ccc2Cl)cc(OC)c1=O [Compound 371]
Test B control value (gray mold on tomato) (Botrytis cinerea): H (H shows more than 50% of control values)
Test G control value (downy mildew on vine) (Plasmopara viticola): L (L shows 50% or less of control values)
Test D control value (powdery mildew on barley) [1]: L (L shows 50% or less of control values)
Test E control value (brown rust on wheat) (Puccinia recondita): H (H shows more than 50% of control values)
Test C control value (Alternaria sooty spot on cabbage) (Alternaia brassicicola): H (H shows more than 50% of control values)

CCn1c(-c2c(F)cccc2F)c(-c2c(F)c(F)c(F)c(F)c2F)cc(Cl)c1=O [Compound 372]
Test B control value (gray mold on tomato) (Botrytis cinerea): L (L shows 50% or less of control values)
Test G control value (downy mildew on vine) (Plasmopara viticola): L (L shows 50% or less of control values)
Test D control value (powdery mildew on barley) [1]: L (L shows 50% or less of control values)
Test E control value (brown rust on wheat) (Puccinia recondita): H (H shows more than 50% of control values)
Test C control value (Alternaria sooty spot on cabbage) (Alternaia brassicicola): H (H shows more than 50% of control values)

Cn1c(-c2c(F)cccc2F)c(-c2c(F)c(F)c(F)c(F)c2F)ccc1=O [Compound 373]
Test B (control value class) (Botrytis cinerea): H (H shows more than 50% of control values)
Test G (control value class) (Plasmopara viticola): L (L shows 50% or less of control values)
Test D (control value class) [1]: L (L shows 50% or less of control values)
Test E (control value class) (Puccinia recondita): H (H shows more than 50% of control values)
Test C (control value class) (Alternaia brassicicola): L (L shows 50% or less of control values)

CCn1c(-c2c(F)cccc2F)c(-c2cc(OC)ccc2Cl)cc(SC)c1=O [Compound 375]
Test B (control value class) (Botrytis cinerea): H (H shows more than 50% of control values)
Test G (control value class) (Plasmopara viticola): H (H shows more than 50% of control values)
Test D (control value class) [1]: L (L shows 50% or less of control values)
Test E (control value class) (Puccinia recondita): H (H shows more than 50% of control values)
Test C (control value class) (Alternaia brassicicola): H (H shows more than 50% of control values)

CCOc1ccc(Cl)c(-c2cc(Cl)c(=O)n(CC)c2-c2c(F)cccc2F)c1 [Compound 376]
Test B (control value class) (Botrytis cinerea): H (H shows more than 50% of control values)
Test G (control value class) (Plasmopara viticola): H (H shows more than 50% of control values)
Test D (control value class) [1]: H (H shows more than 50% of control values)
Test E (control value class) (Puccinia recondita): H (H shows more than 50% of control values)
Test C (control value class) (Alternaia brassicicola): H (H shows more than 50% of control values)

COc1cc(OC)c(Cl)c(-c2ccc(=O)n(CC(F)(F)F)c2-c2c(F)cc(F)cc2F)c1 [Compound 377]
Test B (control value class) (Botrytis cinerea): H (H shows more than 50% of control values)
Test G (control value class) (Plasmopara viticola): H (H shows more than 50% of control values)
Test D (control value class) [1]: H (H shows more than 50% of control values)
Test E (control value class) (Puccinia recondita): H (H shows more than 50% of control values)
Test C (control value class) (Alternaia brassicicola): H (H shows more than 50% of control values)

CCOc1cc(F)c(-c2c(-c3cc(OC)cc(OC)c3Cl)ccc(=O)n2CC)c(F)c1 [Compound 378]
Test B (control value class) (Botrytis cinerea): H (H shows more than 50% of control values)
Test G (control value class) (Plasmopara viticola): H (H shows more than 50% of control values)
Test D (control value class) [1]: H (H shows more than 50% of control values)
Test E (control value class) (Puccinia recondita): H (H shows more than 50% of control values)
Test C (control value class) (Alternaia brassicicola): H (H shows more than 50% of control values)

COc1cc(OC)c(Cl)c(-c2ccc(=O)n(/C=C/F)c2-c2c(F)cc(F)cc2F)c1 [Compound 379]
Test B (control value class) (Botrytis cinerea): H (H shows more than 50% of control values)
Test G (control value class) (Plasmopara viticola): H (H shows more than 50% of control values)
Test D (control value class) [1]: H (H shows more than 50% of control values)
Test E (control value class) (Puccinia recondita): H (H shows more than 50% of control values)
Test C (control value class) (Alternaia brassicicola): H (H shows more than 50% of control values)

COc1cc(OC)c(Cl)c(-c2ccc(=O)n(/C=C\F)c2-c2c(F)cc(F)cc2F)c1 [Compound 380]
Test B (control value class) (Botrytis cinerea): H (H shows more than 50% of control values)
Test G (control value class) (Plasmopara viticola): H (H shows more than 50% of control values)
Test D (control value class) [1]: H (H shows more than 50% of control values)
Test E (control value class) (Puccinia recondita): H (H shows more than 50% of control values)
Test C (control value class) (Alternaia brassicicola): H (H shows more than 50% of control values)

CCn1c(-c2c(F)cc(F)cc2F)c(-c2cc(F)ccc2Cl)cc(Br)c1=O [Compound 381, 3-bromo-5-(2-chloro-5-fluorophenyl)-1-ethyl-6-(2,4,6-trifluorophenyl)pyridine-2(1H)-one]
Test B (control value class) (Botrytis cinerea): H (H shows more than 50% of control values)
Test G (control value class) (Plasmopara viticola): L (L shows 50% or less of control values)
Test D (control value class) [1]: H (H shows more than 50% of control values)
Test E (control value class) (Puccinia recondita): H (H shows more than 50% of control values)
Test C (control value class) (Alternaia brassicicola): H (H shows more than 50% of control values)

O=c1ccc(-c2c(F)c(F)c(F)c(F)c2F)c(-c2c(F)cccc2F)n1CC(F)F [Compound 383]
Test B (control value class) (Botrytis cinerea): L (L shows 50% or less of control values)
Test G (control value class) (Plasmopara viticola): L (L shows 50% or less of control values)
Test D (control value class) [1]: L (L shows 50% or less of control values)
Test E (control value class) (Puccinia recondita): L (L shows 50% or less of control values)
Test C (control value class) (Alternaia brassicicola): L (L shows 50% or less of control values)

O=c1c(Cl)cc(-c2c(F)c(F)c(F)c(F)c2F)c(-c2c(F)cccc2F)n1CC(F)F [Compound 384]
Test B (control value class) (Botrytis cinerea): L (L shows 50% or less of control values)
Test G (control value class) (Plasmopara viticola): L (L shows 50% or less of control values)
Test D (control value class) [1]: H (H shows more than 50% of control values)
Test E (control value class) (Puccinia recondita): H (H shows more than 50% of control values)
Test C (control value class) (Alternaia brassicicola): L (L shows 50% or less of control values)
